Data published in US8648074B2, “Substituted octahydropyrrolo[1,2-a]pyrazine sulfonamides as calcium channel blockers” (AbbVie Inc., priority 2011, dated 2014).

Biological target: human Cav2.2 (Homo sapiens, UniProt Q00975)
Experiment: In vitro assessment of calcium channel activity using FLIPR (Ca2+ influx in IMR32 cells)
Type: cell-based
Details: IMR32 cells endogenously expressing human Cav2.2; Calcium 4 dye, 60 minute pre-incubation, 2 μM nifedipine, depolarized with 80 mM KCl; average of at least two runs unless marked *

`O=S(=O)(c1cccc(C(F)(F)F)c1)N1CCN2CC[C@@H](Oc3ccc(Cl)cn3)[C@@H]2C1` (relative stereo) [Example 35, (8R*,8aS*)-8-[(5-chloropyridin-2-yl)oxy]-2-{[3-(trifluoromethyl)phenyl]-sulfonyl}octahydropyrrolo[1,2-a]pyrazine] showed an IC50 of 0.85 µM.
In the case of `Cc1cc(F)ccc1S(=O)(=O)N1CCN2C[C@H](Oc3cnc(C4CC4)cn3)C[C@H]2C1` [Example 129, (7R,8aS)-7-[(5-cyclopropylpyrazin-2-yl)oxy]-2-[(4-fluoro-2-methylphenyl)-sulfonyl]octahydropyrrolo[1,2-a]pyrazine], the IC50 is reported as 0.89 µM.
`O=S(=O)(c1cccc(C(F)(F)F)c1)N1CCN2CC[C@@H](Oc3ccc(Cl)cn3)[C@H]2C1` (relative stereo) [Example 36, (8R*,8aR*)-8-[(5-chloropyridin-2-yl)oxy]-2-{[3-(trifluoromethyl)phenyl]-sulfonyl}octahydropyrrolo[1,2-a]pyrazine] gave an IC50 of 0.85 µM.
`O=C1[C@@H](C(O)c2cccc(F)c2)C[C@H]2CN(S(=O)(=O)c3cccc(C(F)(F)F)c3)CCN12` (stereo partly drawn) [Example 216, (7R,8aS)-7-[(3-fluorophenyl)(hydroxy)methyl]-2-{[3-(trifluoromethyl)-phenyl]sulfonyl}hexahydropyrrolo[1,2-a]pyrazin-6(2H)-one] showed an IC50 of 1.66 µM.
Molecule `O=S(=O)(c1ccc(Br)cc1)N1CCN2C[C@H](Oc3cnc(C4CC4)cn3)C[C@H]2C1` [Example 150, (7R,8aS)-2-[(4-bromophenyl)sulfonyl]-7-[(5-cyclopropylpyrazin-2-yl)oxy]-octahydropyrrolo[1,2-a]pyrazine] has an IC50 of 1.41 µM.
`Cc1ccc(S(=O)(=O)N2CCN3C[C@H](Oc4cnc(C5CC5)cn4)C[C@H]3C2)cc1Cl` [Example 132, (7R,8aS)-2-[(3-chloro-4-methylphenyl)sulfonyl]-7-[(5-cyclopropylpyrazin-2-yl)oxy]octahydropyrrolo[1,2-a]pyrazine] gave an IC50 of 2.4 µM.
`O=S(=O)(c1cc(Cl)cc(Cl)c1)N1CCN2C[C@@H](Nc3cccc(C(F)(F)F)n3)C[C@H]2C1` [Example 15, (7S,8aS)-2-[(3,5-dichlorophenyl)sulfonyl]-N-[6-(trifluoromethyl)pyridin-2-yl]octahydropyrrolo[1,2-a]pyrazin-7-amine] showed an IC50 of 1.86 µM.
With `O=S(=O)(c1ccc(F)c(C(F)(F)F)c1)N1CCN2C[C@H](Oc3cnc(C4CC4)cn3)C[C@H]2C1` [Example 52, (7R,8aS)-7-[(5-cyclopropylpyrazin-2-yl)oxy]-2-{[4-fluoro-3-(trifluoromethyl)phenyl]sulfonyl}octahydropyrrolo[1,2-a]pyrazine] the IC50 was 0.51 µM.
Work on `COc1cccc(S(=O)(=O)N2CCN3C[C@H](Oc4cnc(C5CC5)cn4)C[C@H]3C2)c1` [Example 105, (7R,8aS)-7-[(5-cyclopropylpyrazin-2-yl)oxy]-2-[(3-methoxyphenyl)sulfonyl]-octahydropyrrolo[1,2-a]pyrazine] yielded an IC50 of 3.99 µM.
In the case of `Cc1nn(C(C)C)cc1S(=O)(=O)N1CCN2C[C@H](Oc3cnc(C4CC4)cn3)C[C@H]2C1` [Example 183, (7R,8aS)-7-[(5-cyclopropylpyrazin-2-yl)oxy]-2-[(1-isopropyl-3-methyl-1H-pyrazol-4-yl)sulfonyl]octahydropyrrolo[1,2-a]pyrazine], the IC50 is reported as 4.3 µM.
Molecule `COc1ccc(S(=O)(=O)N2CCN3C[C@H](Oc4cnc(C5CC5)cn4)C[C@H]3C2)cc1C(C)(C)C` [Example 57, (7R,8aS)-2-[(3-tert-butyl-4-methoxyphenyl)sulfonyl]-7-[(5-cyclopropylpyrazin-2-yl)oxy]octahydropyrrolo[1,2-a]pyrazine] has an IC50 of 1.83 µM.
`CC(=O)c1ccc(S(=O)(=O)N2CCN3C[C@H](Oc4cnc(C5CC5)cn4)C[C@H]3C2)cc1` [Example 48, 1-(4-{[(7R,8aS)-7-[(5-cyclopropylpyrazin-2-yl)oxy]hexahydropyrrolo[1,2-a]-pyrazin-2(1H)-yl]sulfonyl}phenyl)ethanone] was tested, and the IC50 was 9.66 µM.
`O=S(=O)(c1cccc(OC(F)(F)F)c1)N1CCN2C[C@H](Oc3cnc(C4CC4)cn3)C[C@H]2C1` [Example 34, (7R,8aS)-7-[(5-cyclopropylpyrazin-2-yl)oxy]-2-{[3-(trifluoromethoxy)-phenyl]sulfonyl}octahydropyrrolo[1,2-a]pyrazine] showed an IC50 of 0.58 µM.
In the case of `Cc1cc(S(=O)(=O)N2CCN3C[C@H](Oc4cnc(C5CC5)cn4)C[C@H]3C2)ccc1Br` [Example 133, (7R,8aS)-2-[(4-bromo-3-methylphenyl)sulfonyl]-7-[(5-cyclopropylpyrazin-2-yl)oxy]octahydropyrrolo[1,2-a]pyrazine], the IC50 is reported as 1.93 µM.
`O=S(=O)(c1ccc(-c2ccccc2)cc1)N1CCN2C[C@H](Oc3cnc(C4CC4)cn3)C[C@H]2C1` [Example 136, (7R,8aS)-2-(biphenyl-4-ylsulfonyl)-7-[(5-cyclopropylpyrazin-2-yl)oxy]-octahydropyrrolo[1,2-a]pyrazine] showed an IC50 of 0.99 µM.
`O=S(=O)(c1cccc(C(F)(F)F)c1)N1CCN2C[C@H](Oc3cnccn3)C[C@H]2C1` [Example 22, (7R,8aS)-7-(pyrazin-2-yloxy)-2-{[3-(trifluoromethyl)phenyl]sulfonyl}-octahydropyrrolo[1,2-a]pyrazine] was tested, and the IC50 was 2.98 µM.
`COc1ccc(S(=O)(=O)N2CCN3C[C@H](Oc4cnc(C5CC5)cn4)C[C@H]3C2)cc1` [Example 147, (7R,8aS)-7-[(5-cyclopropylpyrazin-2-yl)oxy]-2-[(4-methoxyphenyl)-sulfonyl]octahydropyrrolo[1,2-a]pyrazine] was tested, and the IC50 was 6.15 µM.
For `O=S(=O)(c1cc(Cl)cc(Cl)c1)N1CCN2C[C@H](Oc3cnc(C4CC4)cn3)C[C@H]2C1` [Example 148, (7R,8aS)-7-[(5-cyclopropylpyrazin-2-yl)oxy]-2-[(3,5-dichlorophenyl)-sulfonyl]octahydropyrrolo[1,2-a]pyrazine], the IC50 was 1.75 µM.
`N#Cc1ccc(S(=O)(=O)N2CCN3C[C@H](Oc4cnc(C5CC5)cn4)C[C@H]3C2)cc1` [Example 153, 4-{[(7R,8aS)-7-[(5-cyclopropylpyrazin-2-yl)oxy]hexahydropyrrolo[1,2-a]-pyrazin-2(1H)-yl]sulfonyl}benzonitrile] showed an IC50 of 5.5 µM.
`O=S(=O)(c1cc(C(F)(F)F)ccc1F)N1CCN2C[C@H](Oc3cnc(C4CC4)cn3)C[C@H]2C1` [Example 32, (7R,8aS)-7-[(5-cyclopropylpyrazin-2-yl)oxy]-2-{[2-fluoro-5-(trifluoromethyl)phenyl]sulfonyl}octahydropyrrolo[1,2-a]pyrazine] showed an IC50 of 1.28 µM.
With `O=S(=O)(c1cccc(C(F)(F)F)c1)N1CCN2C[C@H](Oc3ccc(C4CC4)cn3)C[C@H]2C1` [Example 90, (7R,8aS)-7-[(5-cyclopropylpyridin-2-yl)oxy]-2-{[3-(trifluoromethyl)phenyl]-sulfonyl}octahydropyaolo[1,2-a]pyrazine] the IC50 was 0.72 µM.
With `O=S(=O)(c1cccc(C(F)(F)F)c1)N1CCN2C[C@H](OCc3ccc(C(F)(F)F)cc3)C[C@H]2C1` [Example 99, (7R,8aS)-7-{[4-(trifluoromethyl)benzyl]oxy}-2-{[3-(trifluoromethyl)-phenyl]sulfonyl}octahydropyrrolo[1,2-a]pyrazine] the IC50 was 1.14 µM.
With `O=C(NC(c1ccccc1)c1ccccc1)[C@H]1C[C@H]2CN(S(=O)(=O)c3ccc(C(F)(F)F)cc3)CCN2C1` [Example 38, (7S,8aS)—N-(diphenylmethyl)-2-{[4-(trifluoromethyl)phenyl]sulfonyl}-octahydropyrrolo[1,2-a]pyrazine-7-carboxamide] the IC50 was 1.02 µM.
